Results: PubChem BioAssay AID1347120 (National Center for Advancing Translational Sciences (NCATS), 2019)
Several values for one entry are separate records, joined by “and”; a condition that tells them apart may be missing. Equal values may be shown once. Among all 390,000 compounds or so, about 930 (0.24%) were called active. The inconclusive results got no clear call from the source; some entries with a clear call stand among them for comparison. The call rests on the fitted dose curve; in most records, active means well fitted activation curve with a large enough effect; inconclusive means small, poorly fitted or top-dose-only effect; inactive means no such curve, though single readings can be large or run the other way. Potencies of inconclusive entries are doubtful fits and often do not repeat.

Experiment: qHTS for Suppressors of FUS Proteinopathy: Primary screen using FUS-linked yeast assay; further: nearly all actives have a fitted effect of over 55% in size;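 on growth rescue (activation): plate controls were DMSO vehicle for no effect and reference control for full effect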
Conditions: S. cerevisiae FUS-expressing, OD600, 24 h; Potency: growth rescue; growth rescue (activation): at 76.6 µM (top of the series)
Procedure, shortened: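 FUS-expressing yeast, raffinose-pregrown, induced in 2% galactose minimal medium at OD 0.005; compounds in a dilution series, 24hr at 30C. Growth restoration read as absorbance at 600 nm. CP55940 positive control, DMSO negative.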
Potency means the concentration at half of the fitted maximal effect; tags describe the fitted curve by direction and shape.

SMILES	Potency	growth rescue (activation)
COC(=O)[C@]1(Cc2ccccc2)N[C@H](CN(C)S(=O)(=O)c2ccc(C)cc2)[C@@H]2C(=O)N(Cc3ccccc3)C(=O)[C@@H]21	inconclusive: 25.1 µM [activator, single point]	
COc1ccc(C(=O)OCC(=O)Nc2ccc(OC)c(S(=O)(=O)N3CCCCC3)c2)cc1[N+](=O)[O-]	inconclusive: 50.1 µM [activator, single point]	
CCCS(=O)(=O)c1ncc(Cl)c(C(=O)N2CCN(c3ccc(OC)cc3)CC2)n1	inactive	
O=C1OC[C@@H]2CCCN2C(=O)[C@@H](CC(=O)N(CCO)Cc2ccccc2)C/C=C\CC[C@H]1Cc1ccc(F)cc1	inconclusive: 17.8 µM [activator, partial curve]	
COc1ccc(Br)cc1C(=O)Nc1nnn(C)n1	inactive	
COc1ccccc1C(=O)NC1CCCCN(Cc2cccc(C(F)(F)F)c2)C1=O (stereo not given)	inactive	
CC(=O)Nc1ccc(NC(=O)C2(C)Cc3c(-c4ccc(NC(C)=O)cc4)ccnc3O2)cc1 (stereo not given)	inactive	
CCOC(=O)c1cccc(NC(=O)CN(C)S(=O)(=O)c2ccc(Br)s2)c1	inactive	
CCOC(=O)c1ccc2c(c1)N(Cc1cccc(OC)c1)C(=O)c1ccccc1S2(=O)=O	inconclusive: 7.94 µM [activator, partial curve, poor fit]	
C=CCn1c(CCc2cc(C(C)(C)C)c(O)c(C(C)(C)C)c2)n[nH]c1=S	inconclusive: 31.6 µM [activator, single point]	
CCOC(=O)c1c(-c2ccccc2)oc2ccc(NS(=O)(=O)c3ccc(OC)cc3)cc12	inconclusive: 7.08 µM [activator, partial curve, poor fit]	
COc1ccc(OCC(=O)NCC2(N3CCN(C)CC3)CCCCC2)cc1	inactive	
COc1ccc(/C=N/Nc2nc(NCc3ccco3)nc(Nc3ccc(OC)cc3)n2)cc1	inconclusive: 17.8 µM [activator, partial curve, poor fit]	
CCN(CC(=O)Nc1cc(C)c(Cl)cc1OC)CC(=O)NC1CCS(=O)(=O)C1 (stereo not given)	inactive	
O=C(c1cc(C2CC2)nn1-c1ccccc1)N1CCN(c2ccccc2O)CC1	inconclusive: 20 µM [activator, single point]	
Cc1ccc(-n2nnnc2-c2cccnc2)cc1	inactive	
CCOC(=O)C1CCN(C(=O)Nc2ccc3nc(-c4ccco4)c(-c4ccco4)nc3c2)CC1	inconclusive: 25.1 µM [activator, partial curve, poor fit]	
Cc1ccc(CS(=O)(=O)c2cn(CC(=O)N(C)c3ccccc3)c3ccccc23)cc1	active: 31.6 µM	
Cc1ccc(NC(=O)c2cc(C)nn2-c2ccccc2)cc1	inactive	
Cn1cncc1C#Cc1c(C=O)[nH]c2ccccc12	inactive	

SMILES	Potency	growth rescue (activation)
CC(=O)c1cccc(NC2c3ncccc3C(=O)N2Cc2ccco2)c1 (stereo not given)	inconclusive: 35.5 µM [activator, partial curve, poor fit]	
COc1ccccc1CNC(=O)CC1N=C2c3ccccc3N=C(SCC(=O)Nc3ccc(F)cc3)N2C1=O (stereo not given)	inconclusive: 35.5 µM [activator, single point]	
COc1ccccc1Nc1nn2c(=O)c3ccc(C(=O)N4CCC(C)CC4)cc3nc2s1	inconclusive: 50.1 µM [activator, single point] and inconclusive: 15.8 µM [activator, partial curve, poor fit]	
COc1ccc(S(=O)(=O)Nc2cccc(-c3ccc(N4CCOCC4)nn3)c2)cc1F	inconclusive: 31.6 µM [activator, single point]	
COc1cc(C#Cc2c(-c3cncn3C)n(C)c3ccc(-c4ccc5[nH]ccc5c4)cc23)cc(OC)c1	inconclusive: 25.1 µM [activator, partial curve, poor fit]	
Cc1cccc(Nc2nc(N)c([N+](=O)[O-])c(NCc3ccco3)n2)c1	inconclusive: 3.16 µM [activator, full curve]	
COC(=O)[C@]12C[C@H](CC(=O)NCc3cccc(C(F)(F)F)c3)C(=O)N(Cc3ccccc3)C1=C[C@H](COCc1ccccc1)O[C@@H]2C	inconclusive: 7.94 µM [activator, partial curve]	
CC(OC(=O)c1ccc(NS(=O)(=O)c2cccs2)cc1)C(=O)N(C)C1CCCCC1 (stereo not given)	active: 31.6 µM	
COc1ccc2c(c1)cc1c(=O)n(CC(=O)NC3CCCCC3)nc(C)n12	inactive	
COc1cc(Cl)c(NS(=O)(=O)c2ccc3c(c2)CC(C)N3C(=O)C2CCC2)c(OC)c1 (stereo not given)	inconclusive: 20 µM [activator, partial curve, poor fit]	
COC(=O)C1C(O)C(C)C(O)C(C)(O)/C=C\C=C(/C)C(=O)Nc2c(C)c(OC(C)=O)c3c(c2O)C(=O)C(C)=C2OCOC(=C23)/C(C)=C/C(C)(O)C(O)C(C)C1O (stereo not given)	inconclusive: 28.2 µM [activator, partial curve]	
COC(=O)c1cc(NS(=O)(=O)c2ccc(NC(C)=O)cc2)cc(C(=O)OC)c1	inconclusive: 0.891 µM [activator, full curve, poor fit]	
COc1ccc(C2/C(=C(\O)c3ccc4c(c3)OCCO4)C(=O)C(=O)N2Cc2ccco2)c(OC)c1 (stereo not given)	inconclusive: 11.2 µM [activator, partial curve, poor fit]	
COc1ccc(OCC(=O)Nc2ccc(C(=O)OCc3cc(=O)n4nc(C)sc4n3)cc2)cc1	inactive	
CCCCCC(=O)O[C@]1(C(C)=O)CC[C@H]2[C@@H]3CCC4=CC(=O)CC[C@]4(C)[C@H]3CC[C@@]21C	inconclusive: 22.4 µM [activator, single point]	
O=C(Nc1nc2ccccc2s1)C1c2ccccc2Oc2ccccc21	inactive	
CC(=O)Oc1ccc(N(C(C)=O)S(=O)(=O)c2ccc(C)cc2C)c2ccccc12	inconclusive: 22.4 µM [activator, single point]	
Cc1cc(Br)ccc1OCCCN1CCC(C(O)(c2ccccc2)c2ccccc2)CC1	inactive	
CCc1cccc(CC)c1NC(=O)Cn1nnc2sc(-c3ccccc3)cc2c1=O	inactive	
CC(=O)N(CCc1ccccc1)c1ccc2c(c1)C1CC2CCN1C(=O)OCc1ccccc1 (stereo not given)	inconclusive: 31.6 µM [activator, single point]	

SMILES	Potency	growth rescue (activation)
COc1cc(NC(c2ccccc2)c2ccccc2)cc(OC)c1OC	inactive	
OCCNc1nc(Nc2cc(Cl)ccc2OC2CCCC2)nc(N2CCCC2)n1	inconclusive: 35.5 µM [activator, single point]	
O=C(CSc1nnc(-c2cccnc2)n1-c1ccc(Cl)cc1)Nc1ccc(S(=O)(=O)Nc2nccs2)cc1	inconclusive: 11.2 µM [activator, partial curve]	
Cc1ccc(S(=O)(=O)N2C[C@H]3C(=O)C[C@@H](c4cccc(Cl)c4)N(S(=O)(=O)c4ccc(C)cc4)[C@H]3C[C@H]2c2cccc(Cl)c2)cc1	inconclusive: 31.6 µM [activator, single point]	
COc1ccc(C(=O)N2CCCCC2c2cc(C(=O)NCc3ccc(F)cc3)no2)cc1 (stereo not given)	inconclusive: 25.1 µM [activator, partial curve, poor fit]	
CCOCCOC(=O)C1=C(C)N(C)C(=O)NC1c1cc(Cl)c(O)c(OCC)c1 (stereo not given)		inconclusive: 51.6% [activator]
COc1cccc(N2CC(C(=O)Nc3nnc(SCC(=O)NCc4ccco4)s3)CC2=O)c1 (stereo not given)	inconclusive: 44.7 µM [activator, single point]	
CCOC1=C2CN(S(=O)(=O)c3ccc(C)cc3)C(c3ccc(CC)cc3)CC2n2c(=O)n(-c3ccccc3)c(=O)n2C1 (stereo not given)	inconclusive: 10 µM [activator, partial curve]	
N#CC1=C(N)N(c2ccccc2)C(c2ccco2)C1(C#N)C#N (stereo not given)	inactive	
COC(=O)c1c(NC(=O)CN2C(=O)C(=O)N(CC(C)C)C2=O)sc2c1CCCCC2	inconclusive: 25.1 µM [activator, partial curve, poor fit]	
Cc1c(C)n(Cc2ccccc2)c2ccc(C(=O)NC(C)c3ccccc3)cc12 (stereo not given)	inconclusive: 28.2 µM [activator, partial curve, poor fit]	
Cc1ccc(Cn2c(CNS(=O)(=O)c3c(C)cc(C)cc3C)nc3cccnc32)cc1	inconclusive: 17.8 µM [activator, single point]	
COc1ccc(-c2cn3c(n2)sc2cc(C(=O)NC4CCCc5ccccc54)ccc23)cc1 (stereo not given)	inactive	
Cc1cccc(N2CCN(C(=O)c3cn(C4CCCCC4)c(=O)c4c3c3ccccc3n4C)CC2)c1C	inactive	
COc1cccc(-c2sc3ccc(OC)cc3c2C#CCC(C)O)c1 (stereo not given)	inconclusive: 50.1 µM [activator, single point]	
COc1ccc(/C=N/NC(=O)c2ccccc2OC)cc1COc1ccccc1[N+](=O)[O-]	inconclusive: 22.4 µM [activator, partial curve, poor fit]	
CCN(C(=O)CCc1nc(-c2ccc(C)cc2)no1)c1cc(C)ccc1C	inconclusive: 50.1 µM [activator, single point]	
CCCCNS(=O)(=O)/C=C/c1ccccc1CCNC(=O)OC(C)(C)C	inactive	
O=C(c1ccc(S(=O)(=O)Nc2ccccc2F)cc1)N1CCN(c2ccccc2O)CC1	inactive	
C[C@@H]1CN([C@H](C)CO)S(=O)(=O)c2ccc(C#Cc3ccccc3F)cc2O[C@H]1CN(C)C(=O)c1ccc2c(c1)OCO2	inconclusive: 35.5 µM [activator, single point]	
